Residue numbers refer to the chain shown, from its start. Some of the results follow.
T1: RBFOX1 RRM RbFoxmut (Fox-RRM*) (Homo sapiens, UniProt Q9NWB1 109-208, R118D;E147R;N151S;E152T)
T1 sequence: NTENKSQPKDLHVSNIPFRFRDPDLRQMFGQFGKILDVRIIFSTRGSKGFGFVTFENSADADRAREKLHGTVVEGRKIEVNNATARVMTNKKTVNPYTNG

B1: AUAAUUG (DNA:RNA)
RNA: GGGAGACCGGAAUUCAGAUUGUCCAUAAUUGUUAAAUCCCGUCGUAGCCACCA
DNA 1: CAATCTGAATTCCGGTCTCCC
DNA 2: TGGTGGCTACGACGGGATT
B2: UCACCCA (DNA:RNA)
RNA: B1 RNA with A25U, U26C, A28C, U29C, U30C, G31A
DNA 1: CAATCTGAATTCCGGTCTCCC
DNA 2: TGGTGGCTACGACGGGATT
B3: UAGCACG (DNA:RNA)
RNA: B1 RNA with A25U, U26A, A27G, A28C, U29A, U30C
DNA 1: CAATCTGAATTCCGGTCTCCC
DNA 2: TGGTGGCTACGACGGGATT
B4: AAUGUCU (DNA:RNA)
RNA: B1 RNA with U26A, A27U, A28G, U30C, G31U
DNA 1: CAATCTGAATTCCGGTCTCCC
DNA 2: TGGTGGCTACGACGGGATT
B5: GCUUCUA (DNA:RNA)
RNA: B1 RNA with A25G, U26C, A27U, A28U, U29C, G31A
DNA 1: CAATCTGAATTCCGGTCTCCC
DNA 2: TGGTGGCTACGACGGGATT
B6: AAAGUGA (DNA:RNA)
RNA: B1 RNA with U26A, A28G, U30G, G31A
DNA 1: CAATCTGAATTCCGGTCTCCC
DNA 2: TGGTGGCTACGACGGGATT
B7: UUACCUC (DNA:RNA)
RNA: B1 RNA with A25U, A28C, U29C, G31C
DNA 1: CAATCTGAATTCCGGTCTCCC
DNA 2: TGGTGGCTACGACGGGATT
B8: UACACAC (DNA:RNA)
RNA: B1 RNA with A25U, U26A, A27C, U29C, U30A, G31C
DNA 1: CAATCTGAATTCCGGTCTCCC
DNA 2: TGGTGGCTACGACGGGATT
B9: UUCUUAA (DNA:RNA)
RNA: B1 RNA with A25U, A27C, A28U, U30A, G31A
DNA 1: CAATCTGAATTCCGGTCTCCC
DNA 2: TGGTGGCTACGACGGGATT
B10: AAAGCGA (DNA:RNA)
RNA: B1 RNA with U26A, A28G, U29C, U30G, G31A
DNA 1: CAATCTGAATTCCGGTCTCCC
DNA 2: TGGTGGCTACGACGGGATT
B11: UACUGCA (DNA:RNA)
RNA: GGGAGACCGGAAUUCAGAUUGUCCUACUGCAUUAAAUCCCGUCGUAGCCACCA
DNA 1: CAATCTGAATTCCGGTCTCCC
DNA 2: TGGTGGCTACGACGGGATT
B12: AAAAGCG (DNA:RNA)
RNA: B1 RNA with U26A, U29G, U30C
DNA 1: CAATCTGAATTCCGGTCTCCC
DNA 2: TGGTGGCTACGACGGGATT
B13: UAAACGC (DNA:RNA)
RNA: B1 RNA with A25U, U26A, U29C, U30G, G31C
DNA 1: CAATCTGAATTCCGGTCTCCC
DNA 2: TGGTGGCTACGACGGGATT
B14: GGCUCAU (DNA:RNA)
RNA: B11 RNA with U25G, A26G, G29C, C30A, A31U
DNA 1: CAATCTGAATTCCGGTCTCCC
DNA 2: TGGTGGCTACGACGGGATT
B15: GCCUGGA (DNA:RNA)
RNA: B11 RNA with U25G, A26C, C30G
DNA 1: CAATCTGAATTCCGGTCTCCC
DNA 2: TGGTGGCTACGACGGGATT
B16: ACAACUC (DNA:RNA)
RNA: B1 RNA with U26C, U29C, G31C
DNA 1: CAATCTGAATTCCGGTCTCCC
DNA 2: TGGTGGCTACGACGGGATT
B17: UGUCCCA (DNA:RNA)
RNA: B11 RNA with A26G, C27U, U28C, G29C
DNA 1: CAATCTGAATTCCGGTCTCCC
DNA 2: TGGTGGCTACGACGGGATT
B18: GCUGGAC (DNA:RNA)
RNA: B11 RNA with U25G, A26C, C27U, U28G, C30A, A31C
DNA 1: CAATCTGAATTCCGGTCTCCC
DNA 2: TGGTGGCTACGACGGGATT
B19: CCAUGAU (DNA:RNA)
RNA: B11 RNA with U25C, A26C, C27A, C30A, A31U
DNA 1: CAATCTGAATTCCGGTCTCCC
DNA 2: TGGTGGCTACGACGGGATT
B20: UUCAUGU (DNA:RNA)
RNA: B1 RNA with A25U, A27C, U30G, G31U
DNA 1: CAATCTGAATTCCGGTCTCCC
DNA 2: TGGTGGCTACGACGGGATT

These binders were tested against T1, RBFOX1 RRM RbFoxmut (Fox-RRM*) (assay: EMSA; HiTS-Eq, 1 nM pool, 10 min; buffer printed only for the single-RNA assays: 10 mM Tris pH 7.5, 150 mM NaCl, 3.4 mM EDTA, 0.001% NP-40, 30 C). Details: tags: His6 N-terminal (pET28a); label: 5' 32P.
Outline: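 Purified wild-type or mutant RbFox RRM at increasing concentrations was equilibrated with 1 nM of 5′-radiolabelled RNA carrying 7 randomized nucleotides for 10 min in 50 µL. Unbound RNA was separated by 8% native PAGE and sequenced. Relative association constants came from read-count changes of each RNA species compared with the control reaction, normalised to the cognate motif.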

| Binder | binding signal |
| --- | --- |
| B1 | 0.109 KA relative to UGCAUGU |
| B2 | 0.0824 KA relative to UGCAUGU |
| B3 | 0.24 KA relative to UGCAUGU |
| B4 | 0.0727 KA relative to UGCAUGU |
| B5 | 0.134 KA relative to UGCAUGU |
| B6 | 0.0773 KA relative to UGCAUGU |
| B7 | 0.0646 KA relative to UGCAUGU |
| B8 | 0.0702 KA relative to UGCAUGU |
| B9 | 0.101 KA relative to UGCAUGU |
| B10 | 0.0522 KA relative to UGCAUGU |
| B11 | 0.153 KA relative to UGCAUGU |
| B12 | 0.0886 KA relative to UGCAUGU |
| B13 | 0.0552 KA relative to UGCAUGU |
| B14 | 0.0932 KA relative to UGCAUGU |
| B15 | 0.0891 KA relative to UGCAUGU |
| B16 | 0.0564 KA relative to UGCAUGU |
| B17 | 0.0792 KA relative to UGCAUGU |
| B18 | 0.0737 KA relative to UGCAUGU |
| B19 | 0.104 KA relative to UGCAUGU |
| B20 | 0.157 KA relative to UGCAUGU |
